# The supplement of paper PMC12217912
# The other results are listed elsewhere or left out. Sequences were assembled here from the parent chain. Values near 0.05 are background.
# B1: TEV protease; numbered along this chain (parent)
# chain: MGESLFKGPRDYNPISSSICHLTNESDGHTTSLYGIGFGPFIITNKHLFRRNNGTLVVQSLHGVFKVKDTTTLQQHLVDGRDMIIIRMPKDFPPFPQKLKFREPQREERICLVTTNFQTKSMSSMVSDTSCTFPSGDGIFWKHWIQTKDGQCGSPLVSTRDGFIVGIHSASNFTNTNNYFTSVPKNFMELLTNQEAQQWVSGWRLNADSVLWGGHKVFMVKPEEPFQPVKEATQL
# Variants of: B1
# Test: raw area under fraction-flipped curve 0-4 h after induction (AUC4h, not background-subtracted), DNA-recorder readout of cleavage of the substrate (dimensionless); higher = more cleavage of the substrate by the protease variant
# Conditions: temperature: 34 °C; time window: 0-4 h after rhamnose induction
# Description: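 In vivo DNA recorder in E. coli TOP10(DE3) ΔrhaA at 34 °C. Each TEVp single-site mutant (parent TEVp 0) is paired with a single-site variant of the 7-mer TEVs (canonical ENLYFQ|S). The substrate sits between flexible linkers in a Bxb1-sfGFP-TEVs-SsrA fusion, so cleavage stabilises Bxb1 and speeds flipping of a recombination array, read by NGS. The value is the raw area under the fraction-flipped curve over 0-4 h after rhamnose induction (AUC4h), with ≥20 reads per time point. It is not background-subtracted; inactive controls average about 0.047.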
# 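Further: Bxb1 expression induced with 0.2% (w/v) L-rhamnose at OD600 near 0.5, cultures sampled hourly, flipped fraction per protease–substrate barcode pair counted by paired-end Illumina sequencing.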
Variant,area with substrate ENLYAQS,area with substrate ENLYCQS,area with substrate ENLYDQS,area with substrate ENLYEQS,area with substrate ENLYGQS,area with substrate ENLYIQS,area with substrate ENLYKQS,area with substrate ENLYMQS,area with substrate ENLYNQS,area with substrate ENLYPQS,area with substrate ENLYQQS,area with substrate ENLYRQS,area with substrate ENLYSQS,area with substrate ENLYTQS,area with substrate ENLYVQS,area with substrate ENLYWQS,area with substrate ENLYHQS,area with substrate ENLYLQS,area with substrate ENLYYQS
S121C,0.0523,0.0916,0.068,0.061,0.0845,0.121,0.052,0.109,0.0773,0.0971,0.0764,0.0593,0.0665,0.0984,0.12,0.0744,,,
S121R,0.0524,,0.0653,0.0638,0.0734,0.119,0.0545,0.0885,0.0755,0.0858,,0.0756,0.0784,,,,0.0626,0.0948,0.0523
S127F,0.0832,0.105,0.059,0.068,0.0414,0.109,0.0721,0.092,0.0521,0.0763,,0.0734,,,0.129,,0.06,,0.0622
N177K,0.0393,,,0.0597,0.0634,,0.061,0.0838,0.0822,0.095,0.0798,,0.0718,,,,0.0705,,
T174H,0.0618,0.042,,0.0662,0.073,0.0913,0.0623,0.0774,0.055,0.0604,,0.0641,0.0701,0.0354,,,0.0238,,0.0562
V126L,0.0599,0.0899,0.0622,0.0635,,0.127,,,0.0647,,,,0.08,,0.0561,,0.059,,
S123F,0.0854,,0.036,0.0665,0.0599,0.123,0.0487,0.101,0.0651,0.0708,,0.0593,0.0741,0.0799,0.0755,0.0793,0.074,,0.0618
S182G,0.0852,0.0972,0.05,,0.0692,,0.118,,,0.0823,,,,,0.109,,,,
S182T,0.0786,,,0.0524,,,,,0.0813,,,,,,,,,,
D128P,0.0821,0.149,0.0526,,0.0835,,,0.108,0.0668,0.0755,0.0823,0.0637,,0.104,,,,0.0618,0.0625
F173G,0.0632,,0.0719,0.0528,0.0506,0.0839,,,0.0541,,,,0.0595,0.0567,0.0748,0.0284,0.0601,0.0743,0.0534
F173Q,0.0735,0.0823,0.067,0.0672,,,,,0.0595,0.0551,0.0697,,,,,0.0632,0.0574,,
K185Q,0.0744,0.077,,0.0623,,,0.0601,0.0955,0.0741,0.0819,0.0774,,,0.0784,,,0.0587,,
P155R,0.0626,,0.054,0.055,0.0582,0.0508,0.0483,,0.0501,0.0483,0.065,0.052,0.0523,,0.0491,,0.0485,,
S169Q,0.0784,,0.0619,0.055,0.0626,0.0504,,0.0646,0.0652,0.0491,0.0614,0.0635,0.0628,0.0624,0.0679,0.0615,0.0559,0.0642,0.0475
